Results published in patent publication US11618753B2 (priority 2018, dated 2023).

Tested on: MLKL phosphorylation, HT29-L23 human colorectal adenocarcinoma cells
Assay: cells
Conditions: read-out: pMLKL HCS Cell Assay (IC50, uM)

| Structure (SMILES) | IC50 [µM] |
| --- | --- |
| Nc1ncnn2c(-c3ccc(F)c(C(=O)N[C@@H]4CN(C(=O)CC(C(F)(F)F)C(F)(F)F)C[C@@H]4F)c3F)cc(C(F)(F)F)c12 [Example 732, 3-[4-amino-5-(trifluoromethyl)pyrrolo[2,1-f][1,2,4]triazin-7-yl]-2,6-difluoro-N-[(3R,4S)-4-fluoro-1[4,4,4-trifluoro-3-(trifluoromethyl)butanoyl]pyrrolidin-3-yl]benzamide] | 0.024 |
| C[C@@](O)(C(=O)N1C[C@H](F)[C@H](NC(=O)c2cc(-c3cc(C(F)(F)F)c4c(N)ncnn34)cc(F)c2CF)C1)C(F)(F)F [Example 617, 5-[4-amino-5-(trifluoromethyl)pyrrolo[2,1-f][1,2,4]triazin-7-yl]-3-fluoro-N-[(3R,4S)-4-fluoro-1-[(2R)-3,3,3-trifluoro-2-hydroxy-2-methylpropanoyl]pyrrolidin-3-yl]-2-(fluoromethyl)benzamide] | 0.0024 |
| COc1ncc(-c2cc(C(F)(F)F)c3c(N)ncnn23)cc1C(=O)NC1CN(CC2(C)COC2)CC1F (racemic) [Example 200, 5-[4-amino-5-(trifluoromethyl)pyrrolo[2,1-f][1,2,4]triazin-7-yl]-N-{4-fluoro-1-[(3-methyloxetan-3-yl)methyl]pyrrolidin-3-yl}-2-methoxypyridine-3-carboxamide] | 0.316 |
| Nc1ncnn2c(-c3ccc(F)c(C(=O)N[C@@H]4CN(C(=O)C5CC(F)C5)C[C@@H]4F)c3)cc(C(F)(F)F)c12 (stereo partly drawn) [Example 252, 5-[4-amino-5-(trifluoromethyl)pyrrolo[2,1-f][1,2,4]triazin-7-yl]-2-fluoro-N-[(3R,4S)-4-fluoro-1-(3-fluorocyclobutanecarbonyl)pyrrolidin-3-yl]benzamide] | 0.038 |
| Cc1ccc(-c2cc(C(F)(F)F)c3c(N)ncnn23)cc1C(=O)N[C@@H]1CN(C(=O)c2ccccc2S(C)(=O)=O)C[C@@H]1F [Example 1036, 5-[4-amino-5-(trifluoromethyl)pyrrolo[2,1-f][1,2,4]triazin-7-yl]-N-[(3R,4S)-4-fluoro-1-(2-methanesulfonylbenzoyl)pyrrolidin-3-yl]-2-methylbenzamide] | 0.119 |
| COc1ncc(-c2cc(CN3CCC(F)(F)CC3)c3c(N)ncnn23)cc1C(=O)N[C@@H]1CN(C(=O)c2ccc(F)c(F)c2)C[C@@H]1F [Example 1262, 5-{4-amino-5-[(4,4-difluoropiperidin-1-yl)methyl]pyrrolo[2,1-f][1,2,4]triazin-7-yl}-N-[(3R,4S)-1-(3,4-difluorobenzoyl)-4-fluoropyrrolidin-3-yl]-2-methoxypyridine-3-carboxamide] | 0.0011 |
| Cc1cc(F)c(-c2cc(C(F)(F)F)c3c(N)ncnn23)cc1C(=O)N[C@@H]1CN(C(=O)c2ccc(F)cc2Cl)C[C@@H]1F [Example 809, 5-[4-amino-5-(trifluoromethyl)pyrrolo[2,1-f][1,2,4]triazin-7-yl]-N-[(3R,4S)-1-(2-chloro-4-fluorobenzoyl)-4-fluoropyrrolidin-3-yl]-4-fluoro-2-methylbenzamide] | 0.015 |
| Cc1ccc(-c2cc(CN3CCC(C(F)(F)F)CC3)c3c(N)ncnn23)cc1C(=O)N[C@@H]1CN(C(=O)C(C)(C)F)C[C@@H]1F [Example 1651, 5-(4-amino-5-{[4-(trifluoromethyl)piperidin-1-yl]methyl}pyrrolo[2,1-f][1,2,4]triazin-7-yl)-N-[(3R,4S)-4-fluoro-1-(2-fluoro-2-methylpropanoyl)pyrrolidin-3-yl]-2-methylbenzamide] | 0.00068 |
| Nc1ncnn2c(-c3ccc(F)c(C(=O)Nc4cnn(Cc5ccccc5)c4)c3)cc(C(F)(F)F)c12 [Example 3, 5-[4-amino-5-(trifluoromethyl)pyrrolo[2,1-f][1,2,4]triazin-7-yl]-N-(1-benzyl-1H-pyrazol-4-yl)-2-fluorobenzamide] | 0.005 |
| COc1ncc(-c2cc(C(F)(F)F)c3c(N)ncnn23)cc1C(=O)NC1CN(Cc2cscn2)CC1F (racemic) [Example 206, 5-[4-amino-5-(trifluoromethyl)pyrrolo[2,1-f][1,2,4]triazin-7-yl]-N-{4-fluoro-1-[(1,3-thiazol-4-yl)methyl]pyrrolidin-3-yl}-2-methoxypyridine-3-carboxamide] | 0.021 |
| CC(C(=O)N1C[C@H](F)[C@H](NC(=O)c2cc(-c3cc(C(F)(F)F)c4c(N)ncnn34)ccc2C(F)(F)F)C1)C(F)(F)F (stereo partly shown) [Example 907] | 0.036 |
| COc1cc(C(=O)N[C@@H]2CN(C(=O)[C@@](C)(O)C(F)(F)F)C[C@@H]2F)cc(-c2cc(C(F)(F)F)c3c(N)ncnn23)c1 [Example 578, 3-[4-amino-5-(trifluoromethyl)pyrrolo[2,1-f][1,2,4]triazin-7-yl]-N-[(3R,4S)-4-fluoro-1-[(2R)-3,3,3-trifluoro-2-hydroxy-2-methylpropanoyl]pyrrolidin-3-yl]-5-methoxybenzamide] | 0.0067 |
| COc1ncc(-c2cc(C(F)(F)F)c3c(N)ncnn23)cc1C(=O)NC1CN(Cc2cc(F)cc(F)c2)CC1F (racemic) [Example 238, 5-[4-amino-5-(trifluoromethyl)pyrrolo[2,1-f][1,2,4]triazin-7-yl]-N-{1-[(3,5-difluorophenyl)methyl]-4-fluoropyrrolidin-3-yl}-2-methoxypyridine-3-carboxamide] | 0.01 |
| CC(C)CC(=O)N1C[C@H](F)[C@H](NC(=O)c2cc(-c3cc(C(F)(F)F)c4c(N)ncnn34)ccc2Cl)C1 [Example 939, 5-[4-amino-5-(trifluoromethyl)pyrrolo[2,1-f][1,2,4]triazin-7-yl]-2-chloro-N-[(3R,4S)-4-fluoro-1-(3-methylbutanoyl)pyrrolidin-3-yl]benzamide] | 0.0034 |
| CCc1ccc(-c2cc(C(F)(F)F)c3c(N)ncnn23)cc1C(=O)N[C@@H]1CN(C(=O)C2CCC(F)(F)CC2)C[C@@H]1F [Example 973, 5-[4-amino-5-(trifluoromethyl)pyrrolo[2,1-f][1,2,4]triazin-7-yl]-N-[(3R,4S)-1-(4,4-difluorocyclohexanecarbonyl)-4-fluoropyrrolidin-3-yl]-2-ethylbenzamide] | 0.0091 |
| CCC(O)(C(=O)N1C[C@H](F)[C@H](NC(=O)c2cc(-c3cc(C(F)(F)F)c4c(N)ncnn34)c(F)cc2OC)C1)C(F)(F)F (stereo partly drawn) [Example 877, 5-[4-amino-5-(trifluoromethyl)pyrrolo[2,1-f][1,2,4]triazin-7-yl]-4-fluoro-N-[(3R,4S)-4-fluoro-1-[2-hydroxy-2-(trifluoromethyl)butanoyl]pyrrolidin-3-yl]-2-methoxybenzamide] | 0.0039 |
| COC[C@@H]1C[C@H](NC(=O)c2cc(-c3cc(C(F)(F)F)c4c(N)ncnn34)cnc2OC)CN1C(=O)OC(C)(C)C (racemic) [Example 1699, tert-butyl (2SR,4SR)-4-(5-(4-amino-5-(trifluoromethyl)pyrrolo[2,1-f][1,2,4]triazin-7-yl)-2-methoxynicotinamido)-2-(methoxymethyl)pyrrolidine-1-carboxylate] | 0.487 |
| COc1ncc(-c2c(F)cc3c(N)ncnn23)cc1C(=O)N[C@@H]1CN(C(=O)[C@@](C)(O)C(F)(F)F)C[C@@H]1F [Example 1603, 5-{4-amino-6-fluoropyrrolo[2,1-f][1,2,4]triazin-7-yl}-N-[(3R,4S)-4-fluoro-1-[(2R)-3,3,3-trifluoro-2-hydroxy-2-methylpropanoyl]pyrrolidin-3-yl]-2-methoxypyridine-3-carboxamide] | 0.0099 |
| COc1ncc(-c2cc(CN3CCC(F)(F)CC3)c3c(N)ncnn23)cc1C(=O)N[C@@H]1CN(C(=O)OCC(C)(F)F)C[C@@H]1F [Example 1518, 2,2-difluoropropyl (3R,4S)-3-(5-{4-amino-5-[(4,4-difluoropiperidin-1-yl)methyl]pyrrolo[2,1-f][1,2,4]triazin-7-yl}-2-methoxypyridine-3-amido)-4-fluoropyrrolidine-1-carboxylate] | 0.0016 |
| Cc1cc(F)c(-c2cc(CN3CCC(F)(F)CC3)c3c(N)ncnn23)cc1C(=O)N[C@@H]1CN(C(=O)[C@@](C)(O)C(F)(F)F)C[C@@H]1F [Example 1658, 5-{4-amino-5-[(4,4-difIuoropiperidin-1-yl)methyl]pyrrolo[2,1-f][1,2,4]triazin-7-yl}-4-fluoro-N-[(3R,4S)-4-fluoro-1-[(2R)-3,3,3-trifluoro-2-hydroxy-2-methylpropanoyl]pyrrolidin-3-yl]-2-methylbenzamide] | 0.0012 |
| Nc1ncnn2c(-c3ccc(Cl)c(C(=O)N[C@@H]4CN(C(=O)c5ccccn5)C[C@@H]4F)c3)cc(C(F)(F)F)c12 [Example 956, 5-[4-amino-5-(trifluoromethyl)pyrrolo[2,1-f][1,2,4]triazin-7-yl]-2-chloro-N-[(3R,4S)-4-fluoro-1-(pyridine-2-carbonyl)pyrrolidin-3-yl]benzamide] | 0.185 |
| CC(C)CC(=O)N1C[C@H](F)[C@H](NC(=O)c2cc(F)cc(-c3cc(C(F)(F)F)c4c(N)ncnn34)c2)C1 [Example 601, 3-[4-amino-5-(trifluoromethyl)pyrrolo[2,1-f][1,2,4]triazin-7-yl]-5-fluoro-N-[(3R,4S)-4-fluoro-1-(3-methylbutanoyl)pyrrolidin-3-yl]benzamide] | 0.017 |
| Cc1ccc(-c2cc(C(F)(F)F)c3c(N)ncnn23)cc1C(=O)N[C@@H]1CN(C(=O)c2cc(F)ccn2)C[C@@H]1F [Example 1037, 5-[4-amino-5-(trifluoromethyl)pyrrolo[2,1-f][1,2,4]triazin-7-yl]-N-[(3R,4S)-4-fluoro-1-(4-fluoropyridine-2-carbonyl)pyrrolidin-3-yl]-2-methylbenzamide] | 0.0035 |
| CCOc1ccc(-c2cc(C(F)(F)F)c3c(N)ncnn23)cc1C(=O)N[C@@H]1CN(C(=O)CC(O)(C(F)(F)F)C(F)(F)F)C[C@@H]1F [Example 1106, 5-[4-amino-5-(trifluoromethyl)pyrrolo[2,1-f][1,2,4]triazin-7-yl]-2-ethoxy-N-[(3R,4S)-4-fluoro-1-[4,4,4-trifluoro-3-hydroxy-3-(trifluoromethyl)butanoyl]pyrrolidin-3-yl]benzamide] | 0.0043 |
| CCC(O)(C(=O)N1C[C@H](F)[C@H](NC(=O)c2cc(-c3cc(C(F)(F)F)c4c(N)ncnn34)cc(F)c2F)C1)C(F)(F)F (stereo partly drawn) [Example 1337, 5-[4-amino-5-(trifluoromethyl)pyrrolo-[2,1-f][1,2,4]triazin-7-yl]-2,3-difluoro-N-[(3R,4S)-4-fluoro-1-[2-hydroxy-2-(trifluoromethyl)butanoyl]pyrrolidin-3-yl]benzamide] | 0.0028 |
